Over roughly 18,000 sequences, “TetR repression strength (sort-seq, GFP reporter)” has its median near 0.23; the highest 2% begin near 0.68. This is one part of the list.

In a collection of fitness landscapes (doi:10.1038/s41467-024-54723-y) one finds TetR repression strength data, which are given here for 130 sequences.

In the experiment the target is TetR (class B, Tn10) (UniProt P04483). Nature of the experiment: TetR repression strength (sort-seq, GFP reporter) (relative to tetO2 = 1); higher = stronger repression. The following applies: E. coli. In short, it runs like this: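 Repression strength was calculated by subtracting the read-weighted mean bin from the top bin index plus one and dividing by the unaltered operator's value. The plasmid library was low-copy in E. coli SIG10-MAX, with eight randomized operator positions between a constitutive promoter and sfGFP and constitutive TetR. Cultures grew 5 h at 37 °C in LB containing 50 µg/mL chloramphenicol before 10^6 cells were sorted by FACS into 13 fluorescence bins, each sequenced on Illumina. Three independent transformations were averaged for members having ≥30 reads in all replicates and a CV ≤0.5.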
UniProt P04483, sequence (P04483 whole entry): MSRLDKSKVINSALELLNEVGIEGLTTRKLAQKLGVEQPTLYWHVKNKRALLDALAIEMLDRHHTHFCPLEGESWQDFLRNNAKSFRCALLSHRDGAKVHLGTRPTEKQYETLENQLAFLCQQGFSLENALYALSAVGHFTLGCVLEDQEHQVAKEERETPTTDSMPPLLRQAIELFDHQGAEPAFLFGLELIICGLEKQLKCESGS
The sequence TCCCGGGCAGTATATGAGA had a TetR repression strength of 0.359.

Regarding TCCCAAACAGTACAGGAGA, the TetR repression strength was 0.418.

TCCCCATTAGTGGGTGAGA: the TetR repression strength worked out at 0.165.

As to TCCCAGTGAGTCGAGGAGA, the TetR repression strength came to 0.264.

Regarding TCCCATTGAGTGGATGAGA, the TetR repression strength is 0.228.

TCCCAAACAGTGAAGGAGA came in with a TetR repression strength of 0.445.

Sequence TCCCATCAAGTCAGGGAGA returned a TetR repression strength of 0.0465.

For TCCCCGGTAGTGCTGGAGA, the TetR repression strength was 0.422.

Take TCCCAGGAAGTGGTCGAGA: the TetR repression strength came out at 0.237.

Sequence TCCCGTGTAGTTCGCGAGA gave a TetR repression strength of 0.357.

In turn, TCCCTAGGAGTCTTGGAGA gave a TetR repression strength of 0.263.

Take TCCCCACCAGTGAGGGAGA: the TetR repression strength is 0.933.

TCCCGAGAAGTGGATGAGA came in with a TetR repression strength of 0.298.

For the sequence TCCCACGAAGTGGTAGAGA, the TetR repression strength is 0.164.

Turning to TCCCGTCGAGTTTTTGAGA, the TetR repression strength turned out to be 0.363.

For TCCCTAAGAGTGAGGGAGA, the TetR repression strength amounted to 0.209.

For the sequence TCCCTCAGAGTCAATGAGA, the TetR repression strength stood at 0.25.

In turn, TCCCGTAGAGTGTACGAGA came in with a TetR repression strength of 0.175.

For the sequence TCCCAAGGAGTCCATGAGA, the TetR repression strength turned out to be 0.469.

On to TCCCGCTCAGTTTGAGAGA, for which the TetR repression strength came to 0.269.

In the case of TCCCGATGAGTTTTGGAGA, the TetR repression strength came out at 0.238.

TCCCTTGGAGTGGGCGAGA showed a TetR repression strength of 0.261.

Turning to TCCCAACGAGTGCTCGAGA, the TetR repression strength amounted to 0.241.

In the case of TCCCCTACAGTTAAAGAGA, the TetR repression strength stood at 0.287.

TCCCGCTAAGTTAGTGAGA came in with a TetR repression strength of 0.38.

In turn, TCCCTGATAGTCTGGGAGA yielded a TetR repression strength of 0.0621.

TCCCACTGAGTGTCGGAGA had a TetR repression strength of 0.0213.

Consider TCCCGTCGAGTTTATGAGA, for which the TetR repression strength was 0.104.

For TCCCCTGGAGTTGACGAGA, the TetR repression strength was found to be 0.178.

The sequence TCCCCAGCAGTAGGAGAGA yielded a TetR repression strength of 0.174.

TCCCTTAGAGTTATAGAGA showed a TetR repression strength of 0.219.

The sequence TCCCTATAAGTGTAGGAGA had a TetR repression strength of 0.338.

For TCCCTACAAGTGTTTGAGA, the TetR repression strength amounted to 0.295.

Sequence TCCCTAGCAGTTGAGGAGA had a TetR repression strength of 0.0558.

TCCCTGTTAGTAGCGGAGA registered a TetR repression strength of 0.235.

TCCCTCAGAGTGGCCGAGA: the TetR repression strength is 0.387.

In the case of TCCCGTAGAGTGGACGAGA, the TetR repression strength stood at 0.161.

With TCCCGGTGAGTCGCGGAGA, the TetR repression strength was 0.283.

TCCCTATGAGTGACAGAGA had a TetR repression strength of 0.527.

The sequence TCCCGGTGAGTGACGGAGA gave a TetR repression strength of 0.203.

In the case of TCCCACTGAGTGCCAGAGA, the TetR repression strength stood at 0.0946.

Take TCCCTGGGAGTCGAAGAGA: the TetR repression strength is 0.196.

Turning to TCCCGCATAGTACATGAGA, the TetR repression strength amounted to 0.175.

TCCCGCTAAGTACAGGAGA gave a TetR repression strength of 0.0492.

Regarding TCCCTAAGAGTGCAAGAGA, the TetR repression strength was 0.339.

In the case of TCCCTACGAGTAGACGAGA, the TetR repression strength came out at 0.607.

Consider TCCCCTGGAGTATTAGAGA, for which the TetR repression strength is 0.215.

In turn, TCCCGGCCAGTGATGGAGA showed a TetR repression strength of 0.371.

The sequence TCCCTGAGAGTTATCGAGA showed a TetR repression strength of 0.122.

The sequence TCCCGCGTAGTGACTGAGA registered a TetR repression strength of 0.334.

TCCCAGTGAGTGTTAGAGA came in with a TetR repression strength of 0.231.

In the case of TCCCAATGAGTTCAGGAGA, the TetR repression strength amounted to 0.243.

Sequence TCCCGCGAAGTTGTTGAGA came in with a TetR repression strength of 0.112.

In the case of TCCCGAGGAGTACTCGAGA, the TetR repression strength stood at 0.132.

TCCCCTCCAGTGGCGGAGA: the TetR repression strength was 0.0475.

For TCCCACCGAGTGATAGAGA, the TetR repression strength turned out to be 1.21.

For the sequence TCCCGGCGAGTCATGGAGA, the TetR repression strength was 0.185.

Sequence TCCCAGTGAGTTCACGAGA had a TetR repression strength of 0.16.

TCCCTACAAGTAGATGAGA had a TetR repression strength of 0.312.

On to TCCCTACTAGTTTACGAGA, for which the TetR repression strength came out at 0.207.

In turn, TCCCAAATAGTGATCGAGA yielded a TetR repression strength of 0.448.

For the sequence TCCCCCGCAGTAGCGGAGA, the TetR repression strength was found to be 0.153.

Consider TCCCGACCAGTAAGGGAGA, for which the TetR repression strength was found to be 0.264.

TCCCCCAAAGTTCGTGAGA registered a TetR repression strength of 0.13.

Take TCCCGGGTAGTGGATGAGA: the TetR repression strength was 0.258.

TCCCGACTAGTACGTGAGA: the TetR repression strength was found to be 0.377.

In turn, TCCCGGTTAGTTTAAGAGA had a TetR repression strength of 0.185.

TCCCGCACAGTATGTGAGA registered a TetR repression strength of 0.107.

TCCCATGAAGTGGGAGAGA had a TetR repression strength of 0.268.

The sequence TCCCAGGGAGTTAACGAGA had a TetR repression strength of 0.38.

Turning to TCCCATAGAGTAGCTGAGA, the TetR repression strength amounted to 0.125.

In turn, TCCCGCCGAGTATCTGAGA came in with a TetR repression strength of 0.279.

Turning to TCCCCGGAAGTCCGCGAGA, the TetR repression strength was determined as 0.21.

The sequence TCCCGAAAAGTCTCCGAGA yielded a TetR repression strength of 0.224.

In the case of TCCCGGCTAGTGTGGGAGA, the TetR repression strength was determined as 0.221.

TCCCGCAGAGTTCCGGAGA displayed a TetR repression strength of 0.218.

TCCCTACGAGTCAACGAGA gave a TetR repression strength of 0.31.

Turning to TCCCCTTCAGTTGCAGAGA, the TetR repression strength was found to be 0.471.

Consider TCCCTCATAGTTCAAGAGA, for which the TetR repression strength turned out to be 0.311.

As to TCCCTTTTAGTGAAGGAGA, the TetR repression strength came out at 0.373.

In turn, TCCCCGCTAGTGTTCGAGA showed a TetR repression strength of 0.289.

Consider TCCCACATAGTGGCGGAGA, for which the TetR repression strength came out at 0.203.

TCCCCATCAGTCGTGGAGA came in with a TetR repression strength of 0.207.

With TCCCGTGCAGTGTCTGAGA, the TetR repression strength was 0.362.

For TCCCGCTTAGTGTGAGAGA, the TetR repression strength was 0.106.

Turning to TCCCAGGGAGTTCTTGAGA, the TetR repression strength came out at 0.418.

With TCCCAGTGAGTTTGAGAGA, the TetR repression strength was 0.218.

In turn, TCCCGCCGAGTGGGAGAGA showed a TetR repression strength of 0.257.

TCCCTCGGAGTACATGAGA gave a TetR repression strength of 0.104.

As for TCCCGAGCAGTGATTGAGA, the TetR repression strength turned out to be 0.701.

As to TCCCAGCGAGTTGCCGAGA, the TetR repression strength is 0.0792.

Regarding TCCCGCCTAGTCTACGAGA, the TetR repression strength worked out at 0.367.

Consider TCCCGTGAAGTATGTGAGA, for which the TetR repression strength came out at 0.144.

With TCCCTATCAGTGAATGAGA, the TetR repression strength was 0.781.

In turn, TCCCGAACAGTCTAAGAGA yielded a TetR repression strength of 0.41.

For the sequence TCCCACCTAGTGGCAGAGA, the TetR repression strength stood at 0.305.

TCCCGCTGAGTGTCAGAGA displayed a TetR repression strength of 1.09.

Regarding TCCCACCAAGTGTTCGAGA, the TetR repression strength was determined as 0.311.

TCCCATTAAGTATCGGAGA yielded a TetR repression strength of 0.454.

TCCCCTACAGTCTTCGAGA came in with a TetR repression strength of 0.28.

Regarding TCCCATCGAGTTCCAGAGA, the TetR repression strength is 0.213.

Take TCCCGTCCAGTCGAGGAGA: the TetR repression strength was 0.157.

TCCCGTGTAGTGCATGAGA came in with a TetR repression strength of 0.0882.

As for TCCCGTGAAGTCAGGGAGA, the TetR repression strength was determined as 0.224.

Sequence TCCCATCGAGTGGGAGAGA came in with a TetR repression strength of 0.259.

The sequence TCCCTGCTAGTTGTGGAGA displayed a TetR repression strength of 0.0589.

TCCCCGGCAGTGTGAGAGA showed a TetR repression strength of 0.18.

As to TCCCACGTAGTGAACGAGA, the TetR repression strength stood at 0.207.

For TCCCGATGAGTATGAGAGA, the TetR repression strength was found to be 0.442.

In the case of TCCCAAACAGTTCGAGAGA, the TetR repression strength was found to be 0.212.

On to TCCCTATCAGTGCTCGAGA, for which the TetR repression strength is 0.993.

In turn, TCCCACAAAGTGCCTGAGA showed a TetR repression strength of 0.126.

In turn, TCCCTTTGAGTGATAGAGA gave a TetR repression strength of 0.446.

As for TCCCTCTCAGTGAAAGAGA, the TetR repression strength is 0.574.

TCCCTAGAAGTTCCTGAGA displayed a TetR repression strength of 0.311.

TCCCCGTTAGTCGGTGAGA came in with a TetR repression strength of 0.

In the case of TCCCGTCGAGTGTGGGAGA, the TetR repression strength was determined as 0.186.

TCCCATCGAGTCCCCGAGA had a TetR repression strength of 0.504.

Turning to TCCCTTGTAGTTGTTGAGA, the TetR repression strength is 0.42.

With TCCCACGCAGTAGCGGAGA, the TetR repression strength worked out at 0.151.

TCCCAATGAGTACATGAGA: the TetR repression strength was determined as 0.207.

In the case of TCCCGGTAAGTTTCCGAGA, the TetR repression strength amounted to 0.338.

TCCCACATAGTTCTAGAGA: the TetR repression strength stood at 0.364.

As for TCCCGCATAGTACAGGAGA, the TetR repression strength amounted to 0.125.

TCCCTCGGAGTGGGTGAGA gave a TetR repression strength of 0.988.

The sequence TCCCTGTTAGTCGCGGAGA registered a TetR repression strength of 0.512.

As for TCCCTCGAAGTATGCGAGA, the TetR repression strength stood at 0.119.

With TCCCTTGGAGTAAGGGAGA, the TetR repression strength worked out at 0.189.

Take TCCCTCGAAGTAACGGAGA: the TetR repression strength worked out at 0.0678.

The sequence TCCCGGCAAGTGATGGAGA had a TetR repression strength of 0.227.
